No constants are given. Whether binding was seen depends on the method and setting. In cells and extracts the contact can be indirect. Some results given as binding are weak or reduced against the parent protein; the word gives no strength.
Key:
[1] = target: HA-rhTRIM5α (transfected 293T cells) (rhesus macaque) (UniProt Q0PF16); assay: co-IP; 293T cells co-transfected; lysis in 50 mM Tris pH 7.4, 125 mM NaCl, 1% NP-40; IP with anti-HA antibody and protein A beads at 4°C; blot with anti-FLAG
[2] = target: CFP-rhTRIM5α (rhesus macaque) (UniProt Q0PF16); assay: FRET or BRET; progressive acceptor photobleaching in live HeLa cells transfected 1:1 with CFP-rhTRIM5α (donor) and YFP-PSMC2 or YFP empty vector (acceptor); 50 frames over 10 minutes
[3] = target: CFP-rhTRIM5α (rhesus macaque) (UniProt Q0PF16); assay: FRET or BRET; E-FRET (sensitised emission, three images) in live cells with CFP-rhTRIM5α and YFP-PSMC2, single assemblies
[4] = target: HA-rhTRIM5α (HeLa cell line stably expressing it) (rhesus macaque) (UniProt Q0PF16); assay: FRET or BRET; immunofluorescence-based FRET by acceptor photobleaching in fixed HeLa cells stably expressing HA-rhTRIM5α; HA labelled with Cy5 secondary antibody (acceptor), proteasome subunit with Alexa546 secondary antibody (donor)
[5] = target: FLAG-PSMC2 (transfected HEK293 cells) (UniProt P35998); assay: co-IP; HEK293 cells co-transfected; lysis in 50 mM Tris pH 7.5, 150 mM NaCl, 1% Triton X-100, 1 mM EDTA, 10% glycerol; IP with anti-FLAG M2 on Protein G Dynabeads at 4°C; blot with anti-Myc

The chains behind the UniProt entries cited, without tags or fusion partners.
UniProt Q0PF16: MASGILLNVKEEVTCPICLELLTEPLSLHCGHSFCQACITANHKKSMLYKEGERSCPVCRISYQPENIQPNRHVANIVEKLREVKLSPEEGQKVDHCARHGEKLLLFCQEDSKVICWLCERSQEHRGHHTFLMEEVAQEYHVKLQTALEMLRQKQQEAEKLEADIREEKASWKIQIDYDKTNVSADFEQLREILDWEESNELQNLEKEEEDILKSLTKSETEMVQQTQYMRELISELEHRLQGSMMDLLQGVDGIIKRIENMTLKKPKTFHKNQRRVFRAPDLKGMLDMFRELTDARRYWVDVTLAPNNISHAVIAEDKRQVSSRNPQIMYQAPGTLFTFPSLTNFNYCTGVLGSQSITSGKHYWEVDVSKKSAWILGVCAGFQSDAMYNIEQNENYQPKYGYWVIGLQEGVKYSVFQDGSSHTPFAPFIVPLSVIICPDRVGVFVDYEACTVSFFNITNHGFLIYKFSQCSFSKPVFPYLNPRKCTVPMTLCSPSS
UniProt P35998: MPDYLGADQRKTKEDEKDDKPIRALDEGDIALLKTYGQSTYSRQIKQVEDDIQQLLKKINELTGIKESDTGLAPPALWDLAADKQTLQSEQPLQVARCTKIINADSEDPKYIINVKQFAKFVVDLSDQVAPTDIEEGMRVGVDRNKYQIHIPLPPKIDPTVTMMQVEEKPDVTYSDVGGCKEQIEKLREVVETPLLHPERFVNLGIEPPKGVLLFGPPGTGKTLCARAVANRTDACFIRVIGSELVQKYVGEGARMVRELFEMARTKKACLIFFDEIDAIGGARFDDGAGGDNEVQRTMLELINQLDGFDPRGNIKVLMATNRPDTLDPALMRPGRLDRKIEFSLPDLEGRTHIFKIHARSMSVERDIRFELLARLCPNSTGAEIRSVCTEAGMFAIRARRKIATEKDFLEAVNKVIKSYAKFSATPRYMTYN
UniProt Q16584: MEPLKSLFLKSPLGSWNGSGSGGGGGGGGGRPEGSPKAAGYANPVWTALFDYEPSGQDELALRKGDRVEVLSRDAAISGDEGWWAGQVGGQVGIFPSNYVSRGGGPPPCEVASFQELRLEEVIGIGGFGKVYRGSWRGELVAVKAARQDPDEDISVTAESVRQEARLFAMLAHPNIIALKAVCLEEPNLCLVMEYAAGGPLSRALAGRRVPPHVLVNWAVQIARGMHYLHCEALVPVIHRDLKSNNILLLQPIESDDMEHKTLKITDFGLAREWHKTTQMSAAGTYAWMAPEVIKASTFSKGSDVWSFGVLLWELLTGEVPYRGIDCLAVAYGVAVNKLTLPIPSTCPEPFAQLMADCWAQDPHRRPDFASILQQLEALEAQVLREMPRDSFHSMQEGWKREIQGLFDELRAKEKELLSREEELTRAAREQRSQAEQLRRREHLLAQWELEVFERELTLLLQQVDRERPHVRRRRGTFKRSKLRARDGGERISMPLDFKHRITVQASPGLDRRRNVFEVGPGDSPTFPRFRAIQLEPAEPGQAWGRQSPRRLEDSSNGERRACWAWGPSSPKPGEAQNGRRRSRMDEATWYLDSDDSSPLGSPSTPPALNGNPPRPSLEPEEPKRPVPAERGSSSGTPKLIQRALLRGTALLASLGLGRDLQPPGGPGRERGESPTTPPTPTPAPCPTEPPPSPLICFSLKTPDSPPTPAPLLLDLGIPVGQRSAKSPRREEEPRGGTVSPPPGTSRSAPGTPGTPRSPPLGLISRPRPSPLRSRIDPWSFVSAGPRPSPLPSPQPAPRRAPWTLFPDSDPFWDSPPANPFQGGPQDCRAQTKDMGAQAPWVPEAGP
UniProt P62195: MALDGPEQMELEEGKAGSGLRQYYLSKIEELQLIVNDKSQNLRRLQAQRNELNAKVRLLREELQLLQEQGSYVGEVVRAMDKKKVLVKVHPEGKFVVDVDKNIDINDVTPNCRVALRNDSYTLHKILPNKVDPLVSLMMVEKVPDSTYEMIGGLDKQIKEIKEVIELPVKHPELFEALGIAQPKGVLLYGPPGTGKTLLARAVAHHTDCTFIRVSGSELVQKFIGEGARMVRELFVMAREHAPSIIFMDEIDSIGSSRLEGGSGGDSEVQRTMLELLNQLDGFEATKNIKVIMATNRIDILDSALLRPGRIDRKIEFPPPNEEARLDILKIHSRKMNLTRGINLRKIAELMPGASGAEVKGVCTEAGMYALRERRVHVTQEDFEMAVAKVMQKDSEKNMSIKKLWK
UniProt Q9C035: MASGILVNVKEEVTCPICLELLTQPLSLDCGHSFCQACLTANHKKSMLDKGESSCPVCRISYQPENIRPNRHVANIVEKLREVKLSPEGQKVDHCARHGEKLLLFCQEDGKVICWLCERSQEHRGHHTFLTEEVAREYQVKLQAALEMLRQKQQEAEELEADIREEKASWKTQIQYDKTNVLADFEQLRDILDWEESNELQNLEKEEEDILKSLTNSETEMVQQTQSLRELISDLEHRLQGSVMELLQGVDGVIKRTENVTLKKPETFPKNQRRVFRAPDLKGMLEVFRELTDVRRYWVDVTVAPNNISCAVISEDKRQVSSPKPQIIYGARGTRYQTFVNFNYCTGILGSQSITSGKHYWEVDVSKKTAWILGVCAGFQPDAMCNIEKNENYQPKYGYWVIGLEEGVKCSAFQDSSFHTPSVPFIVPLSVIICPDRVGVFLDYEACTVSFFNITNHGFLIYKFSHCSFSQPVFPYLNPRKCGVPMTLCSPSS
UniProt P51665: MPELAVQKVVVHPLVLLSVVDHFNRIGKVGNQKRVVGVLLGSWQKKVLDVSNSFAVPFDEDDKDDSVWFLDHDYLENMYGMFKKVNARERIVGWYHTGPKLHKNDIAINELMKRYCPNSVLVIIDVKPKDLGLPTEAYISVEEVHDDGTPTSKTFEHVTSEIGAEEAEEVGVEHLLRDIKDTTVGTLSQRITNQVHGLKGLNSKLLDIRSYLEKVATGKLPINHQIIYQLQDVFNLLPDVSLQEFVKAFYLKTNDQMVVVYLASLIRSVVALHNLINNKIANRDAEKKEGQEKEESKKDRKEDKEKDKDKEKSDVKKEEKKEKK

Substance: FLAG-tagged Mixed Lineage Kinase 3 (MLK3) (from UniProt Q16584 1-847)
- binding [1]: no binding

Substance: FLAG-RPT3 (from UniProt P43686 1-418)
- binding [1]: binds

Substance: FLAG-RPT6 (from UniProt P62195 1-406)
- binding [1]: binds

Substance: YFP-PSMC2 (YFP C1-PSMC2) (from UniProt P35998 1-433)
- binding [2]: binds
- binding [3]: binds

Substance: endogenous proteasome subunit PSMC2 (HeLa) (from UniProt P35998 1-433)
- binding [4]: binds

Substance: FLAG-PSMC2 (transfected 293T cells) (from UniProt P35998 1-433)
- binding [1]: binds

Substance: huTRIM5α-Myc (from UniProt Q9C035 1-493)
- binding [5]: binds

Substance: FLAG-RPN8 (from UniProt P51665 1-324)
- binding [1]: binds

Reference: PMC3279310
